# According to PubChem BioAssay AID1347120 (National Center for Advancing Translational Sciences (NCATS), 2019):
# Among all 390,000 compounds or so, about 930 (0.24%) were called active. Inconclusive results, whose numbers are uncertain, are shown with a selection of clear calls. Calls come from the whole dose curve; as a rule, active = well fitted activation curve with a large enough effect; inconclusive = small, poorly fitted or top-dose-only effect; inactive = no such curve, though single readings can be large or run the other way. Where the call is inconclusive, the potency comes from a doubtful curve fit.
# Experiment: qHTS for Suppressors of FUS Proteinopathy: Primary screen using FUS-linked yeast assay; note: nearly all actives have a fitted effect of over 55% in size
# Settings: S. cerevisiae FUS-expressing, OD600, 24 h; Potency: growth rescue; series mostly up to 76.6 µM
# Outline: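 Galactose (2%) drives FUS expression in yeast precultured in raffinose; seeding density OD 0.005. Test compounds incubated 24hr at 30C and 99% humidity before absorbance at 600 nm was measured.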
# Potency is the fitted concentration of half-maximal effect; tags give direction and shape of the fitted curve.
row,SMILES,Potency
1,CC1(C(=O)Nc2ccc(F)cc2F)CCN1C(=O)Cc1ccc(Cl)cc1Cl (stereo not given),inactive
2,CC(=O)Nc1ccc(C)cc1-c1nc2ccccc2n(CC(=O)Nc2cc(Cl)ccc2C)c1=O,inactive
3,CCOc1ccc(N2C(=O)CC(Sc3nc(CC(C)C)ccc3C#N)C2=O)cc1 (stereo not given),"inconclusive: 44.7 µM [activator, single point]"
4,Cc1cc(-c2csc(N)n2)c(C)n1Cc1ccco1,active: 28.2 µM
5,COc1ccc(-n2c(SCC(=O)N(CC(C)C)CC(C)C)nnc2-c2ccncc2)cc1,inactive
6,O=C(/C=C/NNC(=O)c1ccccc1O)c1ccccc1,"inconclusive: 22.4 µM [activator, partial curve, poor fit]"
7,COCOCCn1cc(CN2CCS(=O)(=O)N(Cc3ccc(-c4ccc(OC)cc4)cc3)C(C(C)C)C2=O)nn1 (stereo not given),"inconclusive: 31.6 µM [activator, single point]"
8,COC(=O)c1ccc(Cl)cc1NC(=O)N(Cc1ccc(C)o1)C1CCN(C(C)=O)CC1,"inconclusive: 22.4 µM [activator, single point]"
9,COc1ccc(C(=O)NCC2(N3CCN(C)CC3)CCCCC2)cc1,inactive
10,O=C(CC1SC(=Nc2ccccc2)N(Cc2ccccn2)C1=O)Nc1ccc(Br)cc1 (stereo not given),"inconclusive: 20 µM [activator, partial curve, poor fit]"
11,COc1ccc2nc(NC(=O)C3CCCN3S(=O)(=O)c3ccc(C)cc3)sc2c1 (stereo not given),"inconclusive: 15.8 µM [activator, partial curve, poor fit]"
12,CCC(=O)N1CCc2cc(Br)cc(S(=O)(=O)N3CCCC(C(=O)NCc4ccccc4)C3)c21 (stereo not given),"inconclusive: 35.5 µM [activator, partial curve, poor fit]"
13,Cc1cccc(NC(=S)NCc2cccn2C)c1,"inconclusive: 28.2 µM [activator, partial curve]"
14,Cc1ccccc1Oc1ccc2c(c1)[C@@H]1C[C@H](N(C)C(=O)Nc3cc(Cl)cc(Cl)c3)[C@H]([C@H](C)O)C(=O)N1CC2,"inconclusive: 22.4 µM [activator, single point]"
15,C=CCc1cccc(/C=N/NC(=O)c2ccccc2Br)c1O,inactive
16,COc1ccc(-c2cc(C(F)(F)F)nc(SCC(=O)NCCc3ccccc3)n2)cc1OC,inactive
17,COc1ccc(-c2n[nH]c(C)c2-c2ccccc2OC)c(O)c1,"inconclusive: 50.1 µM [activator, single point]"
18,CN(C(=O)c1ccc(NC(=O)Cc2ccc(NC(=O)C3CCCN(C(=O)C4CCC4)C3)cc2)cc1)C1CCCC1 (stereo not given),inactive
19,CN1CCN(S(=O)(=O)c2ccc(N3CCc4ccccc4C3)nc2)CC1,inactive
20,COc1ccc(NC(=O)CSc2nc3ccccc3n2Cc2cccc(OC)c2)cc1,inactive
21,Cc1cc(C(=O)O[C@H]2[C@H](Cc3ccccc3)NS(=O)(=O)[C@H]3C[C@@H]4C=C[C@]23O4)ccc1[N+](=O)[O-],"inconclusive: 50.1 µM [activator, single point]"
22,CN(C)C(CNC(=O)c1ccc(NC(=O)CC#N)cc1)c1ccccc1 (stereo not given),"inconclusive: 39.8 µM [activator, single point]"

row,SMILES,Potency
1,Cc1cc(S(=O)(=O)Nc2ccc(-c3ccc(N4CCCCCC4)nn3)cc2)c(C)cc1Cl,"inconclusive: 28.2 µM [activator, partial curve, poor fit]"
2,CC(C)C[C@H](NC(=O)c1[nH]cnc1C(=O)N[C@@H](C)c1ccccc1)C(=O)OCc1ccccc1,"inconclusive: 3.98 µM [activator, full curve]"
3,CCOC(=O)c1ccc(NC(=O)c2ccc(CO)c(C(=O)NC3CCN(C(=O)OCC)CC3)c2)cc1,"inconclusive: 11.2 µM [activator, partial curve]"
4,COC(=O)[C@]12C[C@H](CC(=O)N3CCCCC3)C(=O)N(Cc3ccc4c(c3)OCO4)C1=C[C@H](C(C)C)O[C@@H]2C1CC1,"inconclusive: 39.8 µM [activator, partial curve, poor fit]"
5,CCOc1ccc(-n2c(SCC(=O)Nc3ccc(S(=O)(=O)Nc4cc(C)nc(C)n4)cc3)nnc2-c2cccc(C)c2)cc1,"inconclusive: 20 µM [activator, partial curve]"
6,Fc1ccc(-c2csc3ncnc(Nc4ccc(N5CCOCC5)cc4)c23)cc1,"inconclusive: 12.6 µM [activator, partial curve, poor fit]"
7,Cc1ccc(NC(=O)C(C)Sc2nc(=O)cc(N)n2-c2ccccc2)cc1 (stereo not given),"inconclusive: 12.6 µM [activator, partial curve, poor fit]"
8,COc1cc(C)c(S(=O)(=O)N2CCCC2)cc1C,inactive
9,CCOC(=O)c1sc2nc(N3CCOCC3)c3c(c2c1N)CCC3,inactive
10,CC(C)c1ccc(CNc2ccc(N3CCOCC3)cc2)cc1,"inconclusive: 44.7 µM [activator, partial curve, poor fit]"
11,CCOc1ccc(NC(=O)CN2CCCN(Cc3cc(C)ccc3C)S2(=O)=O)cc1,inactive
12,O=C1COc2ccccc2C(c2nnnn2-c2ccc3ccccc3c2)N1C1CC1 (stereo not given),inactive
13,O=C(Nc1cc(F)ccc1F)N1CCC(CN2CCCC2)CC1,inactive
14,O=C(NCc1ccccc1)C(c1cc2ccccc2o1)n1c(=O)c(-c2cc3ccccc3[nH]2)nc2ccccc21 (stereo not given),"inconclusive: 17.8 µM [activator, partial curve, poor fit]"
15,C[C@H]1[C@@H](OC(=O)Nc2ccccc2F)CC[C@@]23CCCN2C(=O)CCC[C@@H]13,inactive
16,COc1cc(C(=O)N2CCCC(c3cc(C(=O)NCc4ccc(F)cc4)no3)C2)cc(OC)c1C (stereo not given),"inconclusive: 35.5 µM [activator, single point]"
17,C/C(=C\C(=O)O)C12CC3CC(CC(C3)C1)C2,"inconclusive: 11.2 µM [activator, single point]"
18,CC1C(=O)N(Cc2cn(CCC3OCCCO3)nn2)CCS(=O)(=O)N1Cc1ccc(-c2ccccc2)cc1 (stereo not given),"inconclusive: 31.6 µM [activator, single point]"
19,CCCCCCCCCCOC(=O)Cn1c(COc2ccc(Cl)cc2)[n+](C)c2ccccc21,"inconclusive: 31.6 µM [activator, single point]"
20,CC(C)Oc1ccc(F)cc1-c1cc(C(=O)N2CCc3ccccc3C2)[nH]n1,"inconclusive: 35.5 µM [activator, single point]"
21,O=C(C[n+]1cc(-c2ccc(Cl)cc2)n2c1CCC2)Nc1nc(-c2ccccc2)cs1,"inconclusive: 31.6 µM [activator, single point]"
22,C=CCN=C1NN=C(c2cc(C)n(CC=C)c2C)CS1,"inconclusive: 28.2 µM [activator, partial curve]"

row,SMILES,Potency
1,CCOc1cc(C(c2c(O)nc(SC)[nH]c2=O)c2c(O)nc(SC)[nH]c2=O)ccc1O,inactive
2,CC(=O)NC(c1cc(Cl)c2cccnc2c1O)C1CC1 (stereo not given),inactive
3,CCc1ccccc1N(CC)C(=O)CCc1nc(-c2ccc(C)cc2)no1,"inconclusive: 22.4 µM [activator, partial curve, poor fit]"
4,CCOc1ccc(C(=O)Nc2c3c(nn2C(C)(C)C)CSC3)cc1OCC,"inconclusive: 50.1 µM [activator, partial curve, poor fit]"
5,O=C(CCNC(=O)c1ccc(Br)o1)NCc1ccc(Cl)cc1,inactive
6,CN(C)S(=O)(=O)c1cccc(N=c2scc(-c3ccc4c(c3)NC(=O)CO4)n2CC2CCCO2)c1 (stereo not given),"inconclusive: 25.1 µM [activator, single point]"
7,COc1ccc(NS(=O)(=O)c2ccc3[nH]c4c(c3c2)CCCC4)cc1Cl,"inconclusive: 31.6 µM [activator, single point]"
8,CCc1ccc2oc(-c3cccc(N)c3)nc2c1,"inconclusive: 17.8 µM [activator, partial curve]"
9,CC(=O)c1ccc(NC(=O)CN2CCN(CC(=O)Nc3ccc(C(C)=O)cc3)CC2)cc1,inactive
10,O=C(Nc1ccc2c(c1)OCCO2)C1CCCN(S(=O)(=O)c2cccs2)C1 (stereo not given),inactive
11,Cc1ccccc1S(=O)(=O)Nc1nc2ccccc2nc1N1CCOCC1,inactive
12,COCOCCn1cc(CN2CCS(=O)(=O)N(Cc3ccc(-c4ccccc4)cc3)C(C(C)C)C2=O)nn1 (stereo not given),"inconclusive: 22.4 µM [activator, single point]"
13,COc1ccccc1N1CCN(CCCNC(=O)c2cnn(-c3ccccc3)c2C2CCN(C(=O)OC(C)(C)C)CC2)CC1,"inconclusive: 28.2 µM [activator, partial curve, poor fit]"
14,CN(C)c1ccc(C(=O)NC2CCCCN(Cc3cccc(Cl)c3)C2=O)cc1 (stereo not given),"inconclusive: 28.2 µM [activator, single point]"
15,Cc1c(C(=O)Nc2nccs2)sc2nc(-c3cccs3)cc(C(F)(F)F)c12,"inconclusive: 15.8 µM [activator, partial curve, poor fit]"
16,Cc1ccc(-n2c(COc3ccccc3)nnc2SCC(=O)Nc2ccc3c(c2)OCO3)cc1,inactive
17,Cc1ccc(-c2nc(C3CCCN(S(=O)(=O)c4ccc(C)c(C)c4)C3)no2)cc1 (stereo not given),inactive
18,Cc1cccc(-n2c(SCC(=O)N3CC(=O)Nc4ccccc43)nc3ccccc3c2=O)c1,"inconclusive: 17.8 µM [activator, partial curve, poor fit]"
19,O=C(NNc1nc2c(F)cccc2s1)C1COc2ccccc2O1 (stereo not given),inactive
20,Cc1ccc(NC(=O)C2CCC(CNS(=O)(=O)c3csc(C(N)=O)c3)CC2)cc1Cl (stereo not given),inactive
21,CCOc1ccccc1NC(=O)CSc1nc2cc(O)ccc2c(=O)n1-c1ccc(OC)c(OC)c1,"inconclusive: 28.2 µM [activator, single point]"
